# Assay results: the supplement of paper PMC11417369
# The other results are listed elsewhere or left out.
# System: PfHDP1 homeodomain (GST-tagged)
# Assay: gcPBM binding intensity (ln(normalized median fluorescence intensity)); higher = stronger DNA binding
# In short: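 For binding intensity, the highest Masliner-normalised natural-log median intensity across replicate spots of either probe orientation was taken. Protein bound to the array was stained with Alexa488 anti-GST antibody and scanned at 488 nm. The protein, GST-tagged P. falciparum DNA-binding domains from E. coli at about 25 μg on average, had been applied for 1 h to an Agilent 4 × 180k array of primer-extended double-stranded 36-bp intergenic genomic probes and negative controls.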
row,Sequence,gcPBM binding intensity (ln)
1,TTAAAAAATCACAACACACACACACCCAAAAAAAAA [CACACA_site1445],6.71
2,TTTAAAAAAAAAAAAAATTTTTTTTTTTTTTTTTTA [CACACA_negctrl_site1415],5.68
3,CATATATATATATGAACACACAAAAAGAATATTTCC [CACACA_site1493],6.67
4,TTCTATGCATTTATAGTGCATGTAAAATATAAGATA [GTGCAC_site9466],9.68
5,GTAGAAAGAAAAATTAGTACTTAAATATTATAAAAA [XGTACX_site8458],6.29
6,AATTATATTTAGTATATGCACACTTTATGTTTGTTA [CACACA_site2025],9.36
7,TCTATACCTATTCTTACACACATATGTATTTATATA [CACACA_site4475],7.27
8,CTTTTTACTTAATACACACACACACCCAAAAAAAAA [CACACA_site948],7.37
9,CATCAAAATGAAGCATGTACATAATATAAATAAATA [XGTACX_site4647],6.58
10,AAAAAATACCAAAGGGGTACTTACACATAATACTTA [XGTACX_site2111],6.04
11,ATTGAAGGGAAATATATAATCATATTCAAAATAAAA [CACACA_negctrl_site728],6.3
12,ATTTCTCTATCGTAATGTACAAAAAAAAGGGAAAAG [XGTACX_site1335],6.48
13,CTAATCATAAAATATACACACACGGATACATTAAAT [CACACA_site2685],6.98
14,TTTATACTTTCAAAATGTACATATATATATATATAT [XGTACX_site6241],9.31
15,TAATATATAATTTTATGTACATAATTATAAACCCAT [XGTACX_site919],6.68
16,GGTATTTTCACATATAGTACACAAAAATAAAATAAA [XGTACX_site2139],6.68
17,AAGGAATAAAATTTAGAAGACAATTTTATTTCAGTA [XGTACX_negctrl_site331],5.61
18,TTGTATAAAATATGTAGTACAATAATATAACATTTT [XGTACX_site8607],6.36
19,TATGTATATTGAGATTGTACTTGTAATATTAAACAT [XGTACX_site3878],6.34
20,AATAATAAAAATATTGTGCACTTGTATATTTATTAT [GTGCAC_site9963],9.36
21,TTTTTTTTTTTTTTTTTTTTTTTCTACCTATTTATT [CACACA_negctrl_site94],6.62
22,AACAAGTTGCATGGTGCACACATGTATATATATCTA [CACACA_site2548],10.2

row,Sequence,gcPBM binding intensity (ln)
1,TACAATTTTACTCATAAACACACATATATATGTTAT [CACACA_site9031],6.75
2,AAAATGTATGTAGTCTGTACAAATACTCTATAAATA [XGTACX_site6475],6.54
3,ACCCAGTGTATTCATAGTACACGCTCATATATTATC [XGTACX_site423],6.89
4,AGGTTTATAAAAAAAAAAAAAAAAAAAAAAAAAAAA [GTGCAC_negctrl_site113],6.16
5,CACAAAGGTCTGAAATTTTAGGGGTGCCTGGGACTA [CACACA_negctrl_site681],5.7
6,AATATTTAAAACATATGTACTGAAAAACAATTGGAC [XGTACX_site6360],7.02
7,ATTTTTTTATTTTTGTGTACTTATAAGAATATTAAT [XGTACX_site4850],6.81
8,AATGAATATATTTATTGTACATATATGAATATTGCA [XGTACX_site8689],6.62
9,AAAAAAAAAAAAAAAAGTACAAAAAGGAGAAAGATA [XGTACX_site7862],6.47
10,TATTTTTTATGATTAACACACACACTAATAAAAAAA [CACACA_site9370],7.1
11,TATATATATATATATAGTACGCACACATAGTTGCAA [XGTACX_site5875],9.48
12,ATTCTTACTAATATCGCACACACATATGTAGACGGG [CACACA_site88],7.4
13,ATTTTAAATTTATCTGTGCACAGTATTATATAAGCA [GTGCAC_site9806],10.8
14,TATGTTCCTTTTTGTTGTACTGAAAAATTATGTTCA [XGTACX_site3981],6.61
15,ATAATATAAATTAATTTACACACTAATAAATATATA [CACACA_site9259],6.76
16,TCATAAAAGATTAAGTGTACATGTGCTACTCTTATA [XGTACX_site6255],6.26
17,ACAAGATAATAGAGAAGTACTAATAAACATACACAA [XGTACX_site6617],6.9
18,AATATAAAATCAAGAAATTAAAAAAAAACAGAAAAC [CACACA_negctrl_site1004],7.07
19,TATATATATATATGTGCACACCAATTGTATGTAATA [CACACA_site3888],10.5
20,AAAACATATTTTAAAAGTACTTGAAAAAAAATTTTC [XGTACX_site3940],6.07
21,AAACCAAAAATAACACGTACAAAAATAAAAAGTATA [XGTACX_site4261],6.9
22,GAAAAAAAAAGTTAAGCACACACATGAATAAATAAT [CACACA_site8179],7.16

row,Sequence,gcPBM binding intensity (ln)
1,TTTTGATGCTTTAAATGTACAAGGGTTCTTATGAAA [XGTACX_site831],6.53
2,GAGAGAGAAATATGCACACATAAGGGAAATAAATAA [CACACA_site1153],9.34
3,TGTATATAATTTATATGTACATATATTTTATTTTGT [XGTACX_site1905],6.53
4,AAAAAAAAAAAATAGAAAAAAAAATAAAATAAAAAA [CACACA_negctrl_site562],5.87
5,TGTTAACCACAAAAATAAAATAAAATAAAAATAATA [XGTACX_negctrl_site535],6.39
6,ATTATGCACGGACACACACACACACCCCTAAAAAAT [CACACA_site5426],10.5
7,TTTCCCATAGGAAAAACACACATATATTATAGATAA [CACACA_site7019],6.38
8,TATGCTATTATATATGTACACACCAATTTATTTATA [CACACA_site3918],6.93
9,TGATAAATATTATGTTGTACTTTCTGCCCTTCACAT [XGTACX_site5168],6.75
10,CACAATGGTTTATATACACACTGTTGCAAATTCTTC [CACACA_site5659],9.32
11,AATATAAACACAAACACACACATATAGATTTATATA [CACACA_site6263],6.75
12,AATATATAAATTGACACACACATATATACCTATATA [CACACA_site4803],6.59
13,GAGAGAGAAATAAAAAGTACATACATATATATACAT [XGTACX_site2267],6.46
14,TGGAGATTTTTAAAGACACACAGGTAAGAATAATAA [CACACA_site1582],6.57
15,AAAAAAAACAGACACATACACACAAAAATGTTATAA [CACACA_site82],6.37
16,ACCATTTTTATGTATAAACACACGTACCCGCACTAA [CACACA_site1604],6.6
17,TTATACCTATATTTAACACACATTTGATAAAGTGCC [CACACA_site6732],6.36
18,TTGTAGGTAAATATGTGTACGCATTATTATTCTTAA [XGTACX_site216],6.39
19,AAAAAATTTGTTTATTGTACAGAAAGAATTATTATA [XGTACX_site6549],6.52
20,AACCAATATGTGTATACACACATAAATATAAATATA [CACACA_site7729],7.09
21,AAAAAAAAAAAAAGGTGTACATAAGTAAATTCATAT [XGTACX_site4206],6.36
22,CTTTTCTTTTTTTTTTGTACATAAAATTATTCCTTA [XGTACX_site3924],6.47

row,Sequence,gcPBM binding intensity (ln)
1,AATATAGTCACACATACACACATATAGATTTATATA [CACACA_site7223],6.87
2,TTTTGTTGCTCTTTTTTTTTTTTTTTTAACTGTATG [CACACA_negctrl_site1072],7.15
3,AATATATAAATTAATACATGCACATATAGAAAGGGA [TGCATGCA_site472],10
4,CTTTTTACTTAATACACACACACACTAGAAAAAAAA [CACACA_site4680],7.16
5,TATACATATAAATTGTGTACACATATATATATATTT [XGTACX_site7875],7.06
6,TAAAAGGAAAAAAAAGCACACACAATATTACTTGAA [CACACA_site8831],6.79
7,TATCAAAATTAGTATACACACAAAATTATTCAAATA [CACACA_site2232],6.18
8,TTTGCTTCCAAAAGTCGTACAAAAAATATTAAATAT [XGTACX_site4171],6.47
9,AAAAGATTGCTCCGCATGCACCTCCAAAAGTTCCTT [GTGCAC_site9993],9.94
10,TACAAAAGCGATACGGCACACATTTCCTGTTTAAAT [CACACA_site2746],6.57
11,ATAATAAGCAAACACACACACACAAAAAAAAAAAAA [CACACA_site720],6.51
12,TTATTTTGTTTTAAAAGTACACACTTTTAATTAGAT [XGTACX_site2271],6.4
13,TATATAAACACGTACACACACATATAGGTATTTATA [CACACA_site7615],6.8
14,ACAGAATACATATACACACATACAAAAAAGTGCATA [CACACA_site987],7.81
15,TCATACTGTATATTTTGTACTTATATATATATTATA [XGTACX_site6136],7.04
16,CATTATGTTGTAAATGCACACATACATATACACAGT [CACACA_site8990],9.81
17,AATATTATGTATAACCGTACATTATATATATAATAA [XGTACX_site1594],6.31
18,ATTGTGTTAATGAAATGTACATTTTCTCTACGTTAA [XGTACX_site1322],6.76
19,TCCTACATATTATAGTGTACATTTTCATGTTCATAT [XGTACX_site4308],6.65
20,AAGTATTATATATTTTGTACATATATAAAACCACAA [XGTACX_site5508],6.56
21,TTAAACTTGTTTTGGATGCACTATATAATTCATTTT [GTGCAC_site9549],7.2
22,GTGTAAAGGTATTATTGTATTATTCAAAATAAAAAA [CACACA_negctrl_site637],6.47
